Results published in a collection of fitness landscapes (doi:10.1016/j.celrep.2020.107928).
The full ranking holds about 81,000 sequences; the median of “one-hybrid fitness for binding parS DNA” is about -0.17, and the highest 2% start at about 0.51. Some of the results follow.

B1: Caulobacter ParB omega fusion; a variant is named by its letters at X, in order, B8GW30 (parent)
chain: MESVVVGEPGMSEGRRGLGRGLSALLGEVDAAPAQAPGEQLGGSREAPIEILQRNPDQPRRTFREEDLEDLSNSIREKGVLQPILVRPSPDTAGEYQIVAGERAWRAAQRAGLKTVPIMVRELDDLAVLEIGIIENVQRADLNVLEEALSYKVLMEKFERTQENIAQTIGKSXSHVANXMRLLXLPDEVQSYLVSGELTAXHARAIAAAADPVALAKQIIEGGLSVRETEALARKAPNLSAGKSKGGRPPRVKDTDTQALESDLSSVLGLDVSIDHRGSTGTLTITYATLEQLDDLCNRLTRGI

Variants of: B1
Test: one-hybrid fitness for binding parS DNA (scaled: cognate 1, non-cognate 0); higher = stronger binding
Settings: with parS DNA site
In short: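 On M9-minus-histidine containing 0.1 mM IPTG and 5 mM 3-AT, E. coli USO cells with a HIS3 reporter, site 19 bp from the promoter, grew 48 hours at 37°C to select Caulobacter ParB libraries randomised at four specificity codons. Plasmids from before and after were Illumina-sequenced, with three replicate libraries pooled and variants under 10 reads left out. Fitness is the log change in variant-to-wild-type read ratio, rescaled against cognate and non-cognate.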

Row | Variant | one-hybrid fitness for binding parS DNA
1 | STER | ≤ 0.2
2 | CTWL | ≤ 0.2
3 | QVRY | ≤ 0.2
4 | SDNF | ≤ 0.2
5 | LMTS | ≤ 0.2
6 | HEPW | ≤ 0.2
7 | TNTW | ≤ 0.2
8 | LPYF | ≤ 0.2
9 | RSTK | ≤ 0.2
10 | PDMS | ≤ 0.2
11 | PCTK | ≤ 0.2
12 | STIC | ≤ 0.2
13 | TPDY | ≤ 0.2
14 | KMVC | ≤ 0.2
15 | SEHW | ≤ 0.2
16 | LRQF | ≤ 0.2
17 | VGKY | ≤ 0.2
18 | LRAF | ≤ 0.2
19 | SGQS | ≤ 0.2
20 | FEPP | ≤ 0.2
21 | LPDN | ≤ 0.2
22 | YRLC | ≤ 0.2
23 | WPAA | ≤ 0.2
24 | ISYT | ≤ 0.2

Row | Variant | one-hybrid fitness for binding parS DNA
25 | PRMD | ≤ 0.2
26 | YDAV | ≤ 0.2
27 | KWQW | ≤ 0.2
28 | GSTP | ≤ 0.2
29 | SQLC | ≤ 0.2
30 | DWPS | ≤ 0.2
31 | SDTP | ≤ 0.2
32 | CKMS | ≤ 0.2
33 | RCCK | ≤ 0.2
34 | VVSW | ≤ 0.2
35 | RVAG | 0.999
36 | CDLR | ≤ 0.2
37 | NEGG | ≤ 0.2
38 | IARH | ≤ 0.2
39 | CGER | ≤ 0.2
40 | RNNG | 0.948
41 | AFAN | ≤ 0.2
42 | PSNC | ≤ 0.2
43 | KSEY | ≤ 0.2
44 | CAVM | ≤ 0.2
45 | KAAK | ≤ 0.2
46 | RRMD | ≤ 0.2
47 | QFPC | ≤ 0.2
48 | LMNH | ≤ 0.2

Row | Variant | one-hybrid fitness for binding parS DNA
49 | GVVC | ≤ 0.2
50 | RFNH | ≤ 0.2
51 | DTDT | ≤ 0.2
52 | VPNR | ≤ 0.2
53 | TSPI | ≤ 0.2
54 | QLHC | ≤ 0.2
55 | PLVC | ≤ 0.2
56 | HVRR | ≤ 0.2
57 | IRGA | ≤ 0.2
58 | LLAM | ≤ 0.2
59 | HPVS | ≤ 0.2
60 | ETNY | ≤ 0.2
61 | SWSG | ≤ 0.2
62 | EGGG | 0.251
63 | KRPY | ≤ 0.2
64 | RPMR | ≤ 0.2
65 | YISA | ≤ 0.2
66 | INHL | ≤ 0.2
67 | AWCS | ≤ 0.2
68 | RHGL | ≤ 0.2
69 | FNTY | ≤ 0.2
70 | TFRR | ≤ 0.2
71 | YSDT | ≤ 0.2
72 | CPSM | ≤ 0.2

Row | Variant | one-hybrid fitness for binding parS DNA
73 | RNHW | ≤ 0.2
74 | PCVY | ≤ 0.2
75 | LDDK | ≤ 0.2
76 | PPLA | ≤ 0.2
77 | ETIT | ≤ 0.2
78 | PSPP | ≤ 0.2
79 | LQWD | ≤ 0.2
80 | CQTG | ≤ 0.2
81 | THYR | ≤ 0.2
82 | QSYD | ≤ 0.2
83 | SGDT | ≤ 0.2
84 | AYIC | ≤ 0.2
85 | ELAN | ≤ 0.2
86 | SLQQ | ≤ 0.2
87 | RCFV | ≤ 0.2
88 | VSRV | ≤ 0.2
89 | MWEG | ≤ 0.2
90 | WGFS | ≤ 0.2
91 | NGNP | ≤ 0.2
92 | QGHA | ≤ 0.2
93 | YSIS | ≤ 0.2
94 | TYWF | ≤ 0.2
95 | LDGC | ≤ 0.2
96 | TRTA | ≤ 0.2

Row | Variant | one-hybrid fitness for binding parS DNA
97 | AKNL | ≤ 0.2
98 | MMNL | ≤ 0.2
99 | HAVE | ≤ 0.2
100 | GQRR | ≤ 0.2
101 | SISK | ≤ 0.2
102 | IHFT | ≤ 0.2
103 | SQRL | ≤ 0.2
104 | HVAM | ≤ 0.2
105 | QYET | ≤ 0.2
106 | RFEW | ≤ 0.2
107 | LGEF | ≤ 0.2
108 | VDGV | ≤ 0.2
109 | KQSS | ≤ 0.2
110 | LGNG | ≤ 0.2
111 | KLMR | ≤ 0.2
112 | RRTS | 0.651
113 | FFPG | ≤ 0.2
114 | PYFY | ≤ 0.2
115 | RWGM | ≤ 0.2
116 | HHMR | ≤ 0.2
117 | QVFI | ≤ 0.2
118 | NPRS | ≤ 0.2
119 | RQML | ≤ 0.2
120 | TKTP | ≤ 0.2

Row | Variant | one-hybrid fitness for binding parS DNA
121 | QNEM | ≤ 0.2
122 | QYLA | ≤ 0.2
123 | CRVE | ≤ 0.2
124 | SRSK | ≤ 0.2
125 | DDAS | ≤ 0.2
126 | IRGV | ≤ 0.2
127 | THPW | ≤ 0.2
128 | LNEV | ≤ 0.2
129 | TCRS | ≤ 0.2
130 | RHQV | ≤ 0.2
131 | HTTT | ≤ 0.2
132 | WDLC | ≤ 0.2
133 | AQMM | ≤ 0.2
134 | RPVI | ≤ 0.2
135 | RGAM | ≤ 0.2
136 | NLCC | ≤ 0.2
137 | VSCT | ≤ 0.2
138 | WFGG | ≤ 0.2
139 | VNRT | ≤ 0.2
140 | GQWL | ≤ 0.2
141 | LVRH | ≤ 0.2
142 | YTRW | ≤ 0.2
143 | MNYT | ≤ 0.2
144 | VKTC | ≤ 0.2

Row | Variant | one-hybrid fitness for binding parS DNA
145 | QRYV | ≤ 0.2
146 | PSDD | ≤ 0.2
147 | NSNF | ≤ 0.2
148 | NCLM | ≤ 0.2
149 | YAPS | ≤ 0.2
150 | RLLG | 1.02
151 | YGNF | ≤ 0.2
152 | QWVN | ≤ 0.2
153 | SQQW | ≤ 0.2
154 | HYYG | ≤ 0.2
155 | PVVA | ≤ 0.2
156 | CCTK | ≤ 0.2
157 | ASPE | ≤ 0.2
158 | RWVT | 0.43
159 | SFAF | ≤ 0.2
160 | TSRT | ≤ 0.2
161 | RFLE | ≤ 0.2
162 | QVYC | ≤ 0.2
163 | REYE | ≤ 0.2
164 | HPSC | ≤ 0.2
165 | QCAF | ≤ 0.2
166 | YPVS | ≤ 0.2
167 | LCLN | ≤ 0.2
168 | KYNG | ≤ 0.2

Row | Variant | one-hybrid fitness for binding parS DNA
169 | SMVR | ≤ 0.2
170 | LSRC | ≤ 0.2
171 | SHPI | ≤ 0.2
172 | IQLY | ≤ 0.2
173 | RAFE | ≤ 0.2
174 | WDAG | ≤ 0.2
175 | RGNK | ≤ 0.2
176 | AYGW | ≤ 0.2
177 | CTCV | ≤ 0.2
178 | RIFK | 0.283
179 | GKES | ≤ 0.2
180 | FGYG | ≤ 0.2
181 | GPNT | ≤ 0.2
182 | EPKS | ≤ 0.2
183 | SSPN | ≤ 0.2
184 | QGHD | ≤ 0.2
185 | HGMG | ≤ 0.2
186 | PAAG | ≤ 0.2
187 | VIRC | ≤ 0.2
188 | RMDL | ≤ 0.2
189 | HVTM | ≤ 0.2
190 | RRVW | ≤ 0.2
191 | PDRC | ≤ 0.2
192 | HASK | ≤ 0.2

Row | Variant | one-hybrid fitness for binding parS DNA
193 | AAVK | ≤ 0.2
194 | IYDP | ≤ 0.2
195 | HATY | ≤ 0.2
196 | NKNM | ≤ 0.2
197 | YYMC | ≤ 0.2
198 | DNMW | ≤ 0.2
199 | HQIS | ≤ 0.2
200 | QMAV | ≤ 0.2
201 | IRVQ | ≤ 0.2
202 | HSWF | ≤ 0.2
203 | ESHL | ≤ 0.2
204 | VFVF | ≤ 0.2
205 | SIHR | ≤ 0.2
206 | RIPL | ≤ 0.2
207 | KYLP | ≤ 0.2
208 | CLSK | ≤ 0.2
209 | NNGG | ≤ 0.2
210 | ISCK | ≤ 0.2
211 | MVHG | ≤ 0.2
212 | LNKM | ≤ 0.2
213 | MMML | ≤ 0.2
214 | RSAL | ≤ 0.2
215 | ATIT | ≤ 0.2
216 | QHTF | ≤ 0.2

Row | Variant | one-hybrid fitness for binding parS DNA
217 | PTVG | ≤ 0.2
218 | TKDS | ≤ 0.2
219 | KGSM | ≤ 0.2
220 | MWIF | ≤ 0.2
221 | RPPE | ≤ 0.2
222 | KKTI | ≤ 0.2
223 | GWTC | ≤ 0.2
224 | IQCV | ≤ 0.2
225 | SSNP | ≤ 0.2
226 | PPEG | ≤ 0.2
227 | NSSG | ≤ 0.2
228 | TREY | ≤ 0.2
229 | FQYR | ≤ 0.2
230 | GQNT | ≤ 0.2
231 | AYTC | ≤ 0.2
232 | CLHC | ≤ 0.2
233 | DKTG | ≤ 0.2
234 | WENE | ≤ 0.2
235 | VAIT | ≤ 0.2
236 | RSVD | ≤ 0.2
237 | PAWG | ≤ 0.2
238 | KVRI | ≤ 0.2
239 | QRTI | ≤ 0.2
240 | FYMG | ≤ 0.2

Row | Variant | one-hybrid fitness for binding parS DNA
241 | IYER | ≤ 0.2
242 | VKPP | ≤ 0.2
243 | VNTE | ≤ 0.2
244 | CTQP | ≤ 0.2
245 | DRCR | ≤ 0.2
246 | HQSI | ≤ 0.2
247 | RHIL | ≤ 0.2
248 | ITYY | ≤ 0.2
249 | LYDA | ≤ 0.2
250 | SGLN | ≤ 0.2
251 | TDHS | ≤ 0.2
252 | FTGV | ≤ 0.2
253 | IPML | ≤ 0.2
254 | QNGY | ≤ 0.2
255 | PRAC | ≤ 0.2
256 | PGKC | ≤ 0.2
257 | TVSL | ≤ 0.2
258 | MRVF | ≤ 0.2
259 | DYFS | ≤ 0.2
260 | KSFR | ≤ 0.2
261 | FLFC | ≤ 0.2
262 | ARHK | ≤ 0.2
263 | ATSK | ≤ 0.2
264 | QSGR | ≤ 0.2

Row | Variant | one-hybrid fitness for binding parS DNA
265 | LMVL | ≤ 0.2
266 | ERFS | ≤ 0.2
267 | WITC | ≤ 0.2
268 | CIQC | ≤ 0.2
269 | NTGR | ≤ 0.2
270 | SVDP | ≤ 0.2
271 | RWQQ | ≤ 0.2
272 | AERG | ≤ 0.2
273 | MRYS | ≤ 0.2
274 | SHGY | ≤ 0.2
275 | WRDL | ≤ 0.2
276 | GRRL | ≤ 0.2
277 | DDLG | ≤ 0.2
278 | TIRE | ≤ 0.2
279 | NLDM | ≤ 0.2
280 | VHNR | ≤ 0.2
281 | RYQM | 0.31
282 | YKKT | ≤ 0.2
283 | HKEG | ≤ 0.2
284 | TIEP | ≤ 0.2
285 | REPE | ≤ 0.2
286 | AKQR | ≤ 0.2
287 | KKRR | ≤ 0.2
288 | QYAE | ≤ 0.2

Row | Variant | one-hybrid fitness for binding parS DNA
289 | NGLR | ≤ 0.2
290 | EADC | ≤ 0.2
291 | TSEA | ≤ 0.2
292 | VDIC | ≤ 0.2
293 | AGPW | ≤ 0.2
294 | RQAP | ≤ 0.2
295 | KPRA | ≤ 0.2
296 | SPHA | ≤ 0.2
297 | LLGI | ≤ 0.2
298 | SHSV | ≤ 0.2
299 | NTDF | ≤ 0.2
300 | RDPI | ≤ 0.2
301 | LATN | ≤ 0.2
302 | THQL | ≤ 0.2
303 | AGQF | ≤ 0.2
304 | CTQT | ≤ 0.2
305 | NQLT | ≤ 0.2
306 | QSDM | ≤ 0.2
